Source: article PMC4336329 (PLoS ONE, 2015)
Hit rate of the full screen: of about 310,000 compounds, about 14,000 (4.5%) showed an effect of 50% or more. The effect is printed as a negative number. This is one part of the list.

Molecular target: human ether-à-go-go-related gene (hERG) potassium channel (human, UniProt Q12809)
Test: primary screen, population patch clamp on CHO cells stably expressing hERG
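Note: peak tail current of the secondary pulse compared with the same well before compound.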

Chain of human ether-à-go-go-related gene (hERG) potassium channel (Q12809 whole entry, looked up): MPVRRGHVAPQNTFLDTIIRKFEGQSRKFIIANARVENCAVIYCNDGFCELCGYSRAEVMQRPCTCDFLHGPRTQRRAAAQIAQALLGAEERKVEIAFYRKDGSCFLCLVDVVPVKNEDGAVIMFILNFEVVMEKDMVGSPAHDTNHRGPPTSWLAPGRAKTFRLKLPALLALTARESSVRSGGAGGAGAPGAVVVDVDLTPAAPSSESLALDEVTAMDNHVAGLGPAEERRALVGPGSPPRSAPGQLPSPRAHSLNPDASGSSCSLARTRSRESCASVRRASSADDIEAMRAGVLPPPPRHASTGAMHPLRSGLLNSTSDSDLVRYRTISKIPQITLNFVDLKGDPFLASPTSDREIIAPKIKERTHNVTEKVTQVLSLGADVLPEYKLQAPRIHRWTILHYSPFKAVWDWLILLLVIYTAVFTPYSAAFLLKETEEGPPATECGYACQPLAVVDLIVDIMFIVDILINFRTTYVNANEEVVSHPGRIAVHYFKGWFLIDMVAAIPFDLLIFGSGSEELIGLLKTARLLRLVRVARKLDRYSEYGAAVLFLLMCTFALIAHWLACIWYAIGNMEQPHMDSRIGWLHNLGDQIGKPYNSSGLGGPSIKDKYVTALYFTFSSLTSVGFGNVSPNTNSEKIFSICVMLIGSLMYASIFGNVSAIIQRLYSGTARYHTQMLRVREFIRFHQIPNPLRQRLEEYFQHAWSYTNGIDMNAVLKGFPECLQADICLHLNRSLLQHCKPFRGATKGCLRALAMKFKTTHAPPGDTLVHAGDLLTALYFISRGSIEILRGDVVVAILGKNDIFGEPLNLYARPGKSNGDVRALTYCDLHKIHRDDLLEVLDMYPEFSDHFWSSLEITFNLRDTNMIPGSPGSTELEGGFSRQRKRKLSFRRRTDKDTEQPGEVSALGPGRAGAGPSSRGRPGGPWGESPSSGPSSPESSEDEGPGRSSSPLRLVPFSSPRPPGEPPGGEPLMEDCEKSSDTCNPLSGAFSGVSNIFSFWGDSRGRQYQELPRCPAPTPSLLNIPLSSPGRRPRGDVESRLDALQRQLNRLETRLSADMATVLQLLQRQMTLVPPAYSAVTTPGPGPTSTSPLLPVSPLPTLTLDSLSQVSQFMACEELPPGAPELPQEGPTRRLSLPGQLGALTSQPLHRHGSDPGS

SMILES | hERG current change (%, negative = inhibition) at 10uM
CN(C)CCNc1oc(COc2ccc(Cl)cc2)nc1C#N | -47.6%
Cc1ccc(C(=O)CC(=O)c2ccccc2)cc1 | 16.2%
COc1ccc(CNc2ncc(-c3ccc(Cl)cc3)n2C)c(OC)c1OC.O=C(O)C(=O)O | -47%
Cl.O=C(c1cccs1)c1coc2ccc(O)c(CN(CCO)CCO)c12 | -41%
O=c1c(-c2ccccc2)coc2c(CN3CCOCC3)c(O)ccc12 | -5.67%
Cc1ccc([N+](=O)[O-])c2cccnc12 | 11.2%
COc1ccc(CCC(=O)NC2CCC(C)CC2)cc1 (stereo not drawn) | 9.84%
Cc1ccccc1N1CCN(C2CCCN(C(=O)CCC(=O)N(C)C)C2)CC1 (stereo not drawn) | 9.34%
COC(=O)c1cc(Br)c(=O)n(-c2ccccc2F)c1 | -2.93%
O=C(c1ccccc1)c1cc(-c2ccccc2)on1 | 7.6%
O=C(Nc1cc(S(=O)(=O)N2CCOCC2)ccc1N1CCCC1)C1CC1 | -0.0868%
O=C(Nc1cccnc1)c1ccc(S(=O)(=O)N2CCCCCC2)cc1 | 5.14%
O=C(/C=C/c1ccccc1[N+](=O)[O-])Nc1ccccc1 | 10.1%
COC(=O)c1nnn(-c2nc(N3CCOCC3)nc(N3CCOCC3)n2)c1C | -3.53%
Cc1ccc(NC(=O)COC(=O)CCc2c(C)nc3nc(N)nn3c2C)cc1C | -26%
CN(C(=O)c1ccco1)c1nc(-c2ccc(F)cc2)cs1 | 12.6%
COc1cc2oc(=O)ccc2cc1[C@@H](O)[C@@H]1OC(C)(C)OC1(C)C | 5.94%
Cc1ccccc1CNC(=O)CC1C(=O)NCCN1Cc1c(F)cccc1Cl (stereo not drawn) | 2.88%
O=C(Cn1c(=O)c2cccn2c2cccnc21)NCCCN1CCN(c2ccc(F)cc2)CC1 | -76.4%
COc1cc(C(=O)NC(C)CCn2cccn2)ccc1OC1CCN(C(C)=O)CC1 (stereo not drawn) | 9.56%
COc1ccccc1NC(=O)CCCc1nc(-c2ccc(OC)c(OC)c2)no1 | -21%
CC1=C/C(=N\NC(=O)c2ccccc2)CC1 | -53.1%
CCNc1nc(N)c(C(=O)c2ccc(Cl)s2)s1 | 16.3%

SMILES | hERG current change (%, negative = inhibition) at 10uM
CCOC(=O)N1CCN(c2c(NCC3CCCO3)c(=O)c2=O)CC1 (stereo not drawn) | 9.53%
Cc1ccc2c(c1)c1c3n2CCN(C(=O)CN2CCN(C)CC2)C3CCC1 (stereo not drawn) | -16.5%
CC(C)CCNC(=O)c1ccc(NC(=O)C2=CSCCO2)cc1 | 4.36%
O=C(COC(=O)CCNS(=O)(=O)c1ccc2c(c1)OCCO2)NC1CCCc2ccccc21 (stereo not drawn) | -0.954%
O=C(CCCN1C(=O)c2cccc3cccc(c23)C1=O)N1CCN(c2ccccc2)CC1 | 15.1%
O=C(CN1C(=O)NC2(CCCC2)C1=O)NNC(=O)c1ccc(Cl)cc1 | 4.11%
Cc1ccc(Nc2nc3ccccc3s2)c(C)c1 | -9.47%
CCCn1nnc(NC(=O)COc2ccc(CC)cc2)n1 | -11.8%
COCCCNC(=O)c1ccc2nc3ccccc3c(=O)n2c1 | 14.7%
CCN(CC)CCOc1ccc2c(c1)C(=NO)c1cc(OCCN(CC)CC)ccc1-2.Cl | -16.4%
CC(C)(C)c1ccc(OC(=O)c2ccccc2)cc1 | 24.7%
Cl.O=C(NCC(c1cccs1)N1CCOCC1)c1ccc(Cl)s1 (stereo not drawn) | -21.6%
CCOC(=O)CNc1c(-c2ccc(Cl)cc2)nc2cnccn12 | -48%
CCO/N=C/C(=O)Nc1ccc(F)cc1F | 12.1%
CC(=O)c1cc(CN2CCN(Cc3ccc(C)cc3)C(CCO)C2)cs1 (stereo not drawn) | -55%
COc1ccccc1C(=O)NCC(=O)N/N=C/c1cccc(Cl)c1 | -1.56%
C=CC[n+]1c(/C=C2\C=Cc3cc(C)ccc3N2CC)ccc2ccccc21.[Br-] | -83.5%
CCC12CC3CC(C1)CC(C(=O)NNC(N)=O)(C3)C2 | 9.38%
CCCCc1c(C)nn(-c2nnc3c4ccccc4n(CC)c3n2)c1C | 5.88%
Cc1ccnc(Nc2nc(-c3c(C)nc4sccn34)cs2)c1 | -13.9%
CC1=C(C)CC(C(=O)c2ccccc2)C(C(=O)O)C1 (stereo not drawn) | 11.5%
CCn1c(SCC(=O)Nc2cccc(C)c2)nc2ccccc2c1=O | -26.3%
COc1ccc(Cn2c(=O)[nH]c3cc(C(=O)Nc4ccc(N5CCN(C)CC5)cc4)ccc32)cc1 | 14.6%

SMILES | hERG current change (%, negative = inhibition) at 10uM
Cc1cc(C)cc(NC(=O)CCC(=O)Nc2nnc(C(F)(F)F)s2)c1 | 5.51%
Cc1cc(C)nc(NS(=O)(=O)c2ccc(NC(=S)NC(=O)c3ccco3)cc2)n1 | -7.2%
c1ccc(Cc2nc(-c3ccccn3)no2)cc1 | -0.706%
Nc1nc2c(ccc3ccccc32)s1 | 3.14%
COc1ccc(NC(=O)CNc2cc(S(=O)(=O)N3CCOCC3)ccc2NCC2CCCO2)cc1 (stereo not drawn) | -18.3%
CC1(C)C(=O)OC(c2cccs2)C(C)(C)C1=O (stereo not drawn) | 5.77%
O=c1c2ccccc2nc2n1C(CBr)CN2 (stereo not drawn) | 2.18%
Cc1ccc2c(c1)N(CC(=O)Nc1ccccc1F)C(=O)CO2 | 19.9%
O=C(CC1CS(=O)(=O)CC1CC(=O)Nc1ccc2c(c1)OCCO2)Nc1ccc2c(c1)OCCO2 (stereo not drawn) | 0.0574%
COc1cc2ccccc2cc1C(=O)N/N=C/c1cccnc1 | -25.9%
Cc1ccc(C(=O)OCC(=O)NCCNC(=O)COC(=O)c2ccc(C)s2)s1 | 2.13%
C#CCOCCOCCOCCNc1nc(N2CCN(C(=O)[C@H]([C@@H](C)CC)n3cc([C@@H](N)CC(C)C)nn3)CC2)nc(N2CCN(C(=O)[C@H](Cc3ccc(O)cc3)n3cc([C@@H](N)CC(C)C)nn3)CC2)n1.Cl | 9.08%
COC(=O)c1ccccc1NC(=O)CN(c1ccc(C)cc1)S(C)(=O)=O | -20.7%
O=C(Cc1ccccc1)Nc1ccc2c(c1)OC1(CCCC1)O2 | -17.7%
Cc1cc(C)c(OCC(=O)Nc2ccccc2N2CCOCC2)c(C)c1 | 15.1%
Cc1ccc(S(=O)(=O)CCC(=O)Nc2ccccc2Cl)cc1 | 4.18%
CCOC(=O)c1c(C)[nH]c(C)c1S(=O)(=O)N(C)CC(=O)Nc1cc(C)ccc1OC | -24.7%
CC(C)(C)OC(=O)[C@H](Cc1ccccc1)NC(=O)c1nc[nH]c1C(=O)NCCCCC[NH3+].[Cl-] | 8.32%
COc1ccc(-n2c(=S)[nH]c3cc(C(=O)O)ccc3c2=O)cc1 | 16.3%
Cn1c(SCC(=O)Nc2ccccc2[N+](=O)[O-])nnc1C(F)(F)F | -3.31%
CCCCN1C(=O)NC(NS(=O)(=O)c2ccc(N)cc2)(C(F)(F)F)C1=O (stereo not drawn) | 5.23%
CC(C)c1ccc(NC(=O)C(c2ccc3c(c2)OCO3)N2CCCCC2)cc1 (stereo not drawn) | -22.6%
O=C1c2cccnc2C(=O)N1c1cccc(-c2nc3ccccc3o2)c1 | -0.88%

SMILES | hERG current change (%, negative = inhibition) at 10uM
COc1ccc(N2CCN(S(=O)(=O)c3ccc(OC)c(C(=O)N4CCCCC4)c3)CC2)cc1 | -12%
CCc1nc2ccccc2c(=O)n1NC(=O)c1c(O)c2ccccc2[nH]c1=O | -1.8%
CC(C)C[C@@H](CO)N1CCN(Cc2cccc(C#N)c2)CCC1=O | -4.41%
COc1ccc(C(=O)NCC(=O)OCC(=O)Nc2sccc2C#N)cc1OC | 14.3%
COC(=O)C(CC(=O)c1ccc(Cl)cc1)c1ccc(C(C)C)cc1 (stereo not drawn) | 5.95%
CCOC(=O)c1ccc(N/C=C/C(=O)C(C)(C)C)cc1 | 35%
O=C(O)Cn1cc2c(n1)CCCC2 | 12.4%
CC1CN(C(=O)C(C)N2CCN(c3cccc(Cl)c3)CC2)CC(C)O1 (stereo not drawn) | 10.1%
OC(CNCC1(N2CCCCC2)CCCCC1)COc1ccc(Cl)cc1Cl (stereo not drawn) | -73.7%
COCc1c(C(=O)OCc2c(C)noc2C)oc2ccccc12 | -9.27%
CC1SC(c2cccc(Cl)c2)NC1=O (stereo not drawn) | 8.55%
COc1ccc(-c2cc(C(=O)N3CCC3)c3ccccc3n2)cc1OC | -1.93%
COc1ccc(C2CC(c3cccs3)Nc3nnnn32)cc1 (stereo not drawn) | -13.3%
Cc1ccc(/C(O)=C2\C(=O)C(=O)N(CC(C)O)C2c2ccc(N(C)C)cc2)cc1 (stereo not drawn) | 14.7%
O=C(CN1CCC(C(=O)c2ccc(F)cc2)CC1)Nc1ccccc1 | -29.7%
O=C(NNC(=S)Nc1ccc(F)cc1F)c1ccco1 | -10.2%
S=C(c1ccc(Cl)cc1)N1CCOCC1 | 2.79%
COc1ccc(CCNC(=O)c2ccc(Cl)nc2)cc1 | 4.32%
COc1ccccc1NS(=O)(=O)c1ccc(NC(C)=O)cc1 | 5.3%
CC1=NN(C(=O)c2ccccc2C)C(O)(c2ccc(Cl)cc2)C1 (stereo not drawn) | 13.4%
CCn1c(N2CCN(S(=O)(=O)CC)CC2)nc2ccccc21 | -37.7%
